In the supplement of paper PMC3334620:
The full ranking holds about 33,000 sequences; the median of “E-score (-0.5 to 0.5)” is about -0.013, and the highest 2% start at about 0.3. The list shows a part of the results.

Each sequence was assayed against T1, Msn1 (UniProt P22148) (assay: PBM E-score (8-mer binding enrichment) (E-score (-0.5 to 0.5)); higher = stronger / more preferred TF binding; most listed sequences are background and not binding sites). Settings: protein concentration: 200 nM; construct: GST-full length.
T1 sequence: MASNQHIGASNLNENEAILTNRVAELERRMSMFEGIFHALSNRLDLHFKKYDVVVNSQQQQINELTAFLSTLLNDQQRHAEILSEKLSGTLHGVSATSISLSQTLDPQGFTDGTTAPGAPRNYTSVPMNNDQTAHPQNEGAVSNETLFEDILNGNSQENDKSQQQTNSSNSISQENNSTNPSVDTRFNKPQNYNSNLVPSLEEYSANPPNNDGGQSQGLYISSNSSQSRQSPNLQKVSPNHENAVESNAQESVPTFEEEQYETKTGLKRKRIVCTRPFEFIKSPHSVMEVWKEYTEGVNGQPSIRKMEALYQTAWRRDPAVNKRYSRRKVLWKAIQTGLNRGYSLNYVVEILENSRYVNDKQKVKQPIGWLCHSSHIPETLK
In short: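 Each ungapped eight-base word and its reverse complement, pooled, received an E-score from the Universal PBM Analysis Suite. Underlying scans, normalised with masliner, recorded fluorescent anti-GST bound to GST-tagged yeast transcription factors. These were applied at about 100-200 nM to universal all-10-mer Agilent arrays double-stranded by primer extension.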

Row | Sequence | PBM E-score
1 | AAAAAAGT | 0.235
2 | AAGGTCAT | 0.0383
3 | ACGTAATC | -0.0595
4 | CTTCCGTA | 0.108
5 | ACTATCGG | 0.106
6 | CAATGTCA | 0.262
7 | TCACGGCA | 0.0499
8 | CCGAGGCG | 0.0021
9 | TGGACTAA | 0.183
10 | ACACACGT | -0.00299
11 | AGCAAAAA | 0.19
12 | CTTAGTTA | 0.0636
13 | ACAGTCGG | 0.0848
14 | GGATGACA | 0.272
15 | ATCCAAGG | -0.0486
16 | AGTCCTAA | 0.297
17 | TAACACGA | -0.0171
18 | CTGCTCAA | 0.0116
19 | ACTGTGAC | 0.259
20 | GGCAAGCA | -0.151
21 | AACCATAG | -0.105
22 | CATTCCAC | -0.0291
23 | GGCTTAGA | -0.0971
24 | AACTCCAG | -0.245
25 | CTGGGACC | -0.269

Row | Sequence | PBM E-score
26 | CCGCGATC | -0.00948
27 | GCGGAAGC | -0.102
28 | ACTTCACT | -0.0662
29 | AGTTGGCA | -0.0822
30 | ATTTAAAG | 0.15
31 | AATAAGGA | -0.0321
32 | GTGATAGA | -0.00307
33 | GCAATGAA | 0.0712
34 | CTAACGGC | 0.0128
35 | CGACGGGC | -0.139
36 | CATTCGCG | 0.156
37 | CAAGCATG | 0.0621
38 | AATCGGGC | 0.188
39 | CAATTCAA | 0.0737
40 | ACCTTAAT | -0.0456
41 | ATGACTCG | -0.0628
42 | ACACGAGC | -0.0693
43 | ATTTAAAT | 0.137
44 | GGATTGCC | -0.153
45 | ACAATCCA | 0.18
46 | AACTTAGC | -0.0744
47 | AGATAAAG | 0.0852
48 | CAGCTGCC | -0.0571
49 | AGTGTTTA | 0.0747
50 | AGCCAAGA | -0.0586

Row | Sequence | PBM E-score
51 | CCCTTTGC | -0.0591
52 | ATTTCGGC | 0.135
53 | ACTTTGCC | 0.013
54 | AGTGACGG | -0.0864
55 | ATTGGACG | 0.211
56 | GTATATAA | 0.177
57 | AGAGAAAA | 0.0628
58 | TCCGATCA | 0.213
59 | GTCAGTGA | 0.0595
60 | CACTACGG | -0.121
61 | ACGACGGC | -0.0669
62 | ACATATAT | 0.141
63 | GGACTTAC | 0.273
64 | ATGAGATA | 0.00206
65 | CCGGTCCG | -0.0392
66 | CCCGTCTC | -0.308
67 | TCCGAGGA | 0.19
68 | TCAATCCA | 0.0372
69 | ATGGGTTG | -0.0641
70 | CTAAGCAG | -0.134
71 | GCACCCAA | -0.191
72 | GTCATGTA | 0.0651
73 | GCGATCAA | -0.0507
74 | ACGAGCCT | -0.209
75 | ACCAGCAA | 0.202

Row | Sequence | PBM E-score
76 | CTACCCTC | -0.219
77 | AGCTAGAC | -0.0225
78 | AGCGTATC | -0.146
79 | CGTAGGCC | -0.109
80 | GCCCTCGA | -0.175
81 | GATTGGCA | -0.127
82 | AAGCATAA | -0.0301
83 | GATGCTAA | 0.111
84 | ACTCCGGC | 0.176
85 | ATCGTAGC | 0.0763
86 | GACAACTA | 0.274
87 | AGTGTGAA | -0.0122
88 | AGCGTCCG | 0.0162
89 | GAATGTTA | 0.0288
90 | AAAGAGAC | 0.102
91 | ATGCATCG | 0.0513
92 | ACGGCGAC | -0.0453
93 | AATTTAGG | 0.132
94 | CCAGCAAC | 0.0523
95 | CGGATTTA | 0.0815
96 | AGACATAC | 0.327
97 | AGAGGCAT | -0.0984
98 | ATACAGTA | 0.192
99 | CCGGGCAG | -0.12
100 | CAGCCGCG | -0.0535

Row | Sequence | PBM E-score
101 | TATTTCCA | -0.0318
102 | AAGCGTTG | -0.104
103 | AGGAGAGC | -0.349
104 | CTATAGCA | 0.0153
105 | CGGAGCCC | -0.245
106 | AGAAGACA | 0.101
107 | ACTTGACC | 0.0395
108 | ACCGTGAC | -0.169
109 | CGTGGTAC | -0.0656
110 | AAAAATGG | 0.311
111 | TCCATACA | 0.155
112 | GACACGTA | 0.277
113 | GGCTCACA | -0.0634
114 | AGCGTCTC | -0.165
115 | AAGGACCG | -0.00955
116 | CAGCGTAG | -0.113
117 | CATGTCGG | 0.224
118 | CTACTTAA | -0.0541
119 | CATTCAAG | -0.031
120 | CCTCCGTA | -0.147
121 | AGTCCTAG | 0.277
122 | GAGTATGC | -0.0467
123 | CATCGAGC | -0.0382
124 | CAGTCGTC | -0.0431
125 | GAATGGCC | -0.205

Row | Sequence | PBM E-score
126 | CTCCGGTC | -0.0955
127 | CCTCCTGA | -0.153
128 | CCCGATAA | -0.00187
129 | TCTGTGAA | 0.157
130 | TATATTCA | 0.0535
131 | GTATTGCA | -0.0906
132 | CCAAGTGG | 0.0408
133 | CGCTCGGA | 0.134
134 | TAGTACCA | 0.11
135 | CAGTTATA | 0.0609
136 | CCGTAGAC | -0.0592
137 | ACCTTCCT | -0.285
138 | AACCCCTC | -0.189
139 | CAATAACG | 0.14
140 | TATATGGA | 0.0978
141 | ACGTGTTC | -0.114
142 | TACGCTAA | -0.0121
143 | CAAAAAAA | 0.201
144 | CATCAGCG | -0.124
145 | AGTTCCAC | -0.0563
146 | CGGCGCGC | 0.184
147 | ATCCAAAC | 0.0456
148 | AGATTCAC | -0.218
149 | AACCAGCC | -0.119
150 | CTTATTTA | 0.0475

Row | Sequence | PBM E-score
151 | TAGGCCGA | 0.00568
152 | GCACCGGA | -0.0489
153 | CCAATACC | 0.00365
154 | CAACATGC | -0.059
155 | CTGTTTTA | 0.122
156 | CGAGTGGA | -0.0134
157 | AAAAGGTC | 0.0953
158 | ACCTAGAT | -0.199
159 | CGTCCGTA | 0.0029
160 | CTTGTCCA | 0.464
161 | CAACAATC | 0.0209
162 | ATAGCGAA | 0.0824
163 | GTCACAGA | 0.213
164 | CCCTCTAA | -0.165
165 | CAACTCGC | 0.105
166 | CACGTACG | 0.046
167 | AGACGGTC | -0.24
168 | TGAGAGAA | 0.00621
169 | AAACTGCG | 0.0328
170 | ATGCGCGG | -0.0121
171 | GTTTGTTA | 0.0854
172 | ATGGCAGA | 0.0312
